{
  "source": "paper PMC4336329",
  "about": "(PLoS ONE, 2015)",
  "note": "Among all 310,000 compounds or so, about 14,000 (4.5%) showed an effect of 50% or more. Effects have a minus sign here. Some of the results follow.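 Also: peak tail current of the secondary pulse compared with the same well before compound.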",
  "data": [
    {"target": "human ether-à-go-go-related gene (hERG) potassium channel (human, UniProt Q12809)", "sequence (Q12809 whole entry, looked up)": "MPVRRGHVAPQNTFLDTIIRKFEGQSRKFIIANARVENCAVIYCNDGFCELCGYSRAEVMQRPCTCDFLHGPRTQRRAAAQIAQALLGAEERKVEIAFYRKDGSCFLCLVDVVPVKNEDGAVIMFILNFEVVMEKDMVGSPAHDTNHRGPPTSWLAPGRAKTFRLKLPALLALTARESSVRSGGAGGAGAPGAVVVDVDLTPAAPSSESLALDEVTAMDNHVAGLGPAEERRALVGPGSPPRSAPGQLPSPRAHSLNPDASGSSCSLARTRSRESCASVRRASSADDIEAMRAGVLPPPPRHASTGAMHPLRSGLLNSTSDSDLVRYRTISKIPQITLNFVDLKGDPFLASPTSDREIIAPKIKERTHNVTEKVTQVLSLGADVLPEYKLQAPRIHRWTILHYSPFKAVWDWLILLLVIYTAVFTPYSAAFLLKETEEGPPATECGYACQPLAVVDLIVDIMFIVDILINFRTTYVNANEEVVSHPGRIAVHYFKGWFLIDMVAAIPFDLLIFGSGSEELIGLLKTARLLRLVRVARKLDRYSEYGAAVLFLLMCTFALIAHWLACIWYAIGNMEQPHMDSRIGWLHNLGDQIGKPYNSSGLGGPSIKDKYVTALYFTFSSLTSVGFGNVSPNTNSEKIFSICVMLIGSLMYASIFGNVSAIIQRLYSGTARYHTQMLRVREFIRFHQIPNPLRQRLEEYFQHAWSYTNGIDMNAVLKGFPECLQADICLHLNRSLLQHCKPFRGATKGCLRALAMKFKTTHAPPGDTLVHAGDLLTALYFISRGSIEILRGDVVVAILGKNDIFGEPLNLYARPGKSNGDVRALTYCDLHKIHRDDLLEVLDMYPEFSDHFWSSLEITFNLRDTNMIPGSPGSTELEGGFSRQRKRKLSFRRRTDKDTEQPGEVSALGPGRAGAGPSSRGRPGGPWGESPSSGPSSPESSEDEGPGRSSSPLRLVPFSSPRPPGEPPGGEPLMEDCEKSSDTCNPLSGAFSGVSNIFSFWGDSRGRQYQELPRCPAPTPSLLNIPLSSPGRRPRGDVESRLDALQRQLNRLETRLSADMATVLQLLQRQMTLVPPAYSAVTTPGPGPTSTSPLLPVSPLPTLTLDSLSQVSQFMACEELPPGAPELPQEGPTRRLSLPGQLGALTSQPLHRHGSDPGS", "assay": "primary screen, population patch clamp on CHO cells stably expressing hERG", "units": {"hERG current change (%, negative = inhibition) at 10uM": "%"}, "values": [
      {"smiles": "N#CCSc1nnc(-c2ccc3c(c2)OCO3)o1", "hERG current change (%, negative = inhibition) at 10uM": 13.7},
      {"smiles": "N#C/C(=C\\c1ccc(N2CCCC2)c([N+](=O)[O-])c1)c1nc2ccccc2[nH]1", "hERG current change (%, negative = inhibition) at 10uM": -35.5},
      {"smiles": "CN1C(=O)CSc2ccc(NC(=O)NCc3cccnc3)cc21", "hERG current change (%, negative = inhibition) at 10uM": -5.23},
      {"smiles": "O=C(Nc1ccccc1C(=O)N/N=C/c1ccncc1)c1ccccc1", "hERG current change (%, negative = inhibition) at 10uM": -7.25},
      {"smiles": "CC(C)C(=O)OCCN=C1NS(=O)(=O)c2ccccc21", "hERG current change (%, negative = inhibition) at 10uM": -4.71},
      {"smiles": "CCOc1cnc(C(=O)NNC(=O)C(Br)C(C)C)o1", "note": "(centres unmarked)", "hERG current change (%, negative = inhibition) at 10uM": 4.78},
      {"smiles": "CC(C)N(CC#CC(O)(c1ccccc1)c1ccccc1)CCO", "hERG current change (%, negative = inhibition) at 10uM": -28.1},
      {"smiles": "COc1cc2c(cc1NC(=O)Cc1ccc(C)cc1)oc1ccccc12", "hERG current change (%, negative = inhibition) at 10uM": -0.676},
      {"smiles": "COc1ccc(-c2nn(C)c(=O)c3ccccc23)cc1NC(=O)Cn1nc(C)c2ccccc2c1=O", "hERG current change (%, negative = inhibition) at 10uM": -57.5},
      {"smiles": "Cc1ccc2nc(-c3ccncc3)cc(C(=O)Nc3ccc(F)cc3C)c2c1", "hERG current change (%, negative = inhibition) at 10uM": -25},
      {"smiles": "CCn1ncc(Br)c1C(=O)Nc1sc2c(c1C(=O)OC)CCC2", "hERG current change (%, negative = inhibition) at 10uM": -40.8},
      {"smiles": "COc1ccc(CCNC(=O)CC(NS(=O)(=O)c2ccc(NC(C)=O)cc2)C(C)C)cc1OC", "note": "(centres unmarked)", "hERG current change (%, negative = inhibition) at 10uM": 17.3},
      {"smiles": "O=C(O)c1cc2c(cc1NC(=O)c1c(F)cccc1F)OCCCO2", "hERG current change (%, negative = inhibition) at 10uM": 11.3},
      {"smiles": "CC(CC(=O)Nc1nc2ccccc2[nH]1)n1ccnc1", "note": "(centres unmarked)", "hERG current change (%, negative = inhibition) at 10uM": -16.7},
      {"smiles": "O=C(c1cccc(S(=O)(=O)Nc2ccc(Br)cc2)c1)N1CCCC1", "hERG current change (%, negative = inhibition) at 10uM": -40.1},
      {"smiles": "COc1ccccc1-c1ccc(Nc2cccc(C(F)(F)F)c2)nn1", "hERG current change (%, negative = inhibition) at 10uM": 15.4},
      {"smiles": "CN(C)c1cccc2c(S(=O)(=O)N3CCCC3)cccc12", "hERG current change (%, negative = inhibition) at 10uM": 19.8},
      {"smiles": "CCOc1ccc2[nH]cc(S(=O)(=O)c3ccc(F)cc3)c(=O)c2c1", "hERG current change (%, negative = inhibition) at 10uM": -4.38},
      {"smiles": "CCOc1ccc(/C=C2\\SC(=O)N(CCNC(=O)C3COc4ccccc4O3)C2=O)cc1OC", "note": "(centres unmarked)", "hERG current change (%, negative = inhibition) at 10uM": -20.7},
      {"smiles": "COc1cc(/C=N/NC(=O)Cc2nnc(N)s2)cc(OC)c1OC", "hERG current change (%, negative = inhibition) at 10uM": 22.5},
      {"smiles": "CCN1CCN(C(=S)Nc2cccc(Cl)c2)CC1", "hERG current change (%, negative = inhibition) at 10uM": -8.01},
      {"smiles": "O=c1[nH][nH]cc1C=Nc1ccc(Cl)cc1", "hERG current change (%, negative = inhibition) at 10uM": 11.1},
      {"smiles": "O=c1c2ccccc2c(C=Nc2cccc(S(=O)(=O)NCc3ccco3)c2)c(O)n1-c1ccc(Cl)cn1", "hERG current change (%, negative = inhibition) at 10uM": -4.94},
      {"smiles": "Cc1ccc(-n2ncc3c(NNC(=O)c4cccs4)ncnc32)cc1", "hERG current change (%, negative = inhibition) at 10uM": 13.3},
      {"smiles": "COc1ccc(-n2c(SC)nc3ccccc3c2=O)cc1", "hERG current change (%, negative = inhibition) at 10uM": -2.58},
      {"smiles": "CCn1c(CCNC(=O)c2ccccc2Cl)n[nH]c1=S", "hERG current change (%, negative = inhibition) at 10uM": 12},
      {"smiles": "CCCn1ncc(C(=O)NC2CCCN(Cc3ccc(Cl)cc3)C2)c1C", "note": "(centres unmarked)", "hERG current change (%, negative = inhibition) at 10uM": -44.4},
      {"smiles": "Cc1ccc(-c2noc(CSc3nnc(-c4ccncc4)n3-c3ccc(C)cc3)n2)cc1", "hERG current change (%, negative = inhibition) at 10uM": -42.9},
      {"smiles": "COc1ccc(C(=O)NNC(=O)Cc2ccc(-c3ccccc3)cc2)cc1OC", "hERG current change (%, negative = inhibition) at 10uM": 2.14},
      {"smiles": "O=C1C2CCCN2C(=O)N1CCN1CCN(CCO)CC1", "note": "(centres unmarked)", "hERG current change (%, negative = inhibition) at 10uM": -5.52},
      {"smiles": "Cc1ccc(C)c(NC(=O)c2cc(S(=O)(=O)N3CCCCC3)c[nH]2)c1", "hERG current change (%, negative = inhibition) at 10uM": -5},
      {"smiles": "COc1ccc(CCNC(=O)c2cccc(S(=O)(=O)N3CCOCC3)c2)cc1OC", "hERG current change (%, negative = inhibition) at 10uM": 1.15},
      {"smiles": "Cc1cc(C(=O)CS(=O)(=O)c2ccccc2)cc(C)c1OC(=O)N(C)C", "hERG current change (%, negative = inhibition) at 10uM": 10.2},
      {"smiles": "COC(=O)c1sccc1NC(=O)C1CC(C)=C(C)CC1C(=O)O", "note": "(centres unmarked)", "hERG current change (%, negative = inhibition) at 10uM": 18.5},
      {"smiles": "COc1ccc(OCC(O)CNC(=O)c2c(-c3ccccc3)noc2C)cc1", "note": "(centres unmarked)", "hERG current change (%, negative = inhibition) at 10uM": -8.1},
      {"smiles": "O=C(/C=C/c1ccccc1)NNC1=NS(=O)(=O)c2ccccc21", "hERG current change (%, negative = inhibition) at 10uM": 23.6},
      {"smiles": "CCOC(=O)C1=C(O)C(=O)N(CCCn2ccnc2)C1c1ccc(C)cc1", "note": "(centres unmarked)", "hERG current change (%, negative = inhibition) at 10uM": 24.3},
      {"smiles": "CCOC(=O)c1ccc(N/C=C/C(=O)c2ccccc2)cc1", "hERG current change (%, negative = inhibition) at 10uM": 16.6},
      {"smiles": "CCOc1cccc(/C=N/N2CCN(c3ccc(Cl)cc3)CC2)c1O", "hERG current change (%, negative = inhibition) at 10uM": 15.5},
      {"smiles": "Cc1ccc(S(=O)(=O)CCC#N)cc1", "hERG current change (%, negative = inhibition) at 10uM": 13},
      {"smiles": "COc1ccc(/C=N/c2oc(-c3ccccc3)cc2C#N)cc1", "hERG current change (%, negative = inhibition) at 10uM": 10.5},
      {"smiles": "O=c1[nH]c(/C=C\\c2cccc(O)c2)nc(O)c1[N+](=O)[O-]", "hERG current change (%, negative = inhibition) at 10uM": 18},
      {"smiles": "O=C(CN1CCCCC1)Nc1cccc(Cl)c1Cl", "hERG current change (%, negative = inhibition) at 10uM": -1.14},
      {"smiles": "O=C(c1cccs1)N(Cc1ccco1)c1nc(-c2ccc(F)cc2)cs1", "hERG current change (%, negative = inhibition) at 10uM": -6.95},
      {"smiles": "O=C(CCS(=O)(=O)c1ccccc1)Nc1nc2cc3c(cc2s1)OCO3", "hERG current change (%, negative = inhibition) at 10uM": 8.15},
      {"smiles": "O=C(CSCc1ccccc1Cl)Nc1ccc(C(=O)O)cc1", "hERG current change (%, negative = inhibition) at 10uM": 19.6},
      {"smiles": "CC(C)(C)CN1CCN(Cc2cc3ccccc3[nH]2)CC1CCO", "note": "(centres unmarked)", "hERG current change (%, negative = inhibition) at 10uM": -8.03},
      {"smiles": "O=C(CCC(=O)N1CCOc2ccc(Cl)cc21)NCCCN1CCC(Cc2ccccc2)CC1", "hERG current change (%, negative = inhibition) at 10uM": -75},
      {"smiles": "O=c1nc2s/c(=C\\c3ccco3)c(=O)n2nc1Cc1ccc(F)cc1", "hERG current change (%, negative = inhibition) at 10uM": -7.6},
      {"smiles": "C=C1CCC[C@]2(C)C[C@H]3OC(=O)C(CN4CC(C)OC(C)C4)[C@H]3C[C@@H]12", "note": "(some centres unmarked)", "hERG current change (%, negative = inhibition) at 10uM": -7.12},
      {"smiles": "CCOC(=O)[C@@H]1[C@H]2COc3cc(OC)ccc3[C@@H]2N2C(=O)N(c3ccc(Cl)cc3)C(=O)[C@@]12C", "hERG current change (%, negative = inhibition) at 10uM": -3.36},
      {"smiles": "O=C(c1ccccc1F)N1CCN(c2ncccn2)CC1", "hERG current change (%, negative = inhibition) at 10uM": 3.24},
      {"smiles": "C/C(=N\\Nc1nccnc1Cl)c1ccc(Cl)c(Cl)c1", "hERG current change (%, negative = inhibition) at 10uM": -5.91},
      {"smiles": "O=C(Nc1ccccc1C(F)(F)F)N1CCN(C(c2ccccc2)c2ccccc2)CC1", "hERG current change (%, negative = inhibition) at 10uM": 15.5},
      {"smiles": "Cc1cccc(CN2CCN(CC(=O)NCc3ccc(F)cc3)C2=O)c1", "hERG current change (%, negative = inhibition) at 10uM": -13.6},
      {"smiles": "O=C(CNCCc1ccc(Cl)cc1Cl)NCc1ccco1", "hERG current change (%, negative = inhibition) at 10uM": -27.2}
    ]}
  ]
}
